# The list shows a part of the results.
# Test system: T1, C. trachomatis L2/434/Bu expressing GFP (CTL2-GFP)
# T1 construct: L2/434/Bu GFP intracellular growth in HeLa cells
# Design: species or system HeLa; C. trachomatis total inclusion area by high-content imaging, normalised to DMSO
# Conditions: total inclusion area; 28.5 h, 10 µM; inhibitor
# Outline: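 High-content imaging followed the bulk GFP/resorufin measurement: fixed, Hoechst-stained cells were scored for GFP inclusions and host nuclei per well. Total inclusion area and count served as growth proxies, nuclei number as the viability proxy. MIC calculation matched the bulk assay.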
row,SMILES,% of control remaining
1,CCC(C(=O)NCC1CCCN(C(C)C)C1)n1cnc2ccccc21 (stereo not shown) [CBK282706],112.052
2,COc1ccc(/C=C(\C)C(=O)NCc2ccccc2OC2CCNC2)cc1OC (stereo not shown) [CBK034157T],85.1752
3,N#C/C(=C\c1cn(-c2ccccc2)nc1-c1cccc(S(=O)(=O)N2CCCC2)c1)c1nc2ccccc2c(=O)[nH]1 [CBK266296],118.098
4,O=S(=O)(NCCc1cccc(C(F)(F)F)c1)c1cccs1 [CBK044068],100.598
5,Cc1ccc([N+](=O)[O-])cc1NC(=O)CSc1nnc(Cc2ccccc2)o1 [CBK265889],83.3399
6,CCOC(=O)c1sc(NS(=O)(=O)Cc2ccccc2[N+](=O)[O-])nc1C [CBK047458],98.724
7,Cc1cccc(NC(=O)c2cnc3n(c2=O)CCS3)c1 [CBK287375],101.913
8,O=C(NC(c1ccccc1)c1ccccc1)N1CCN(Cc2ccccc2)CC1 [CBK155630],79.1199
9,c1ccc(CCNC2CCCc3c2[nH]c2ccc(C4CCCCC4)cc32)cc1 (stereo not shown) [CBK261602C],103.919
10,COc1ccc(N2CCN(Cc3nc4c(c(=O)n(C)c(=O)n4C)n3CC(C)=O)CC2)cc1 [CBK269465],84.068
11,Cc1cnc(CNS(=O)(=O)c2cnn(-c3ccccc3)c2C)cn1 [CBK062335],85.0097
12,CCn1c2ccccc2c2cc(CN3CCN(Cc4cc(OC)cc(OC)c4)CC3)ccc21 [CBK263164],82.9743
13,CCC(C(=O)O)N1C(=O)C(=Cc2ccc(-c3ccccc3C(F)(F)F)o2)SC1=S (stereo not shown) [CBK296985],83.5269
14,COc1ccc2c(c1)C(=O)CC1(CCN(C(=O)/C=C/c3ccc(C)cc3)CC1)O2 [CBK156438],111.716
15,COc1ccc(OCCN2CCC(C(=O)NC(c3ccccn3)c3ccccc3OC)CC2)cc1 (stereo not shown) [CBK147938],85.9628
16,COc1ccc(C(NC(=O)Cc2ccc(-n3nnnc3C)cc2)c2ccccc2)cc1 (stereo not shown) [CBK285537],112.934
17,C[C@@H]1C[C@H](C(F)(F)F)n2nc(C3CCCN3C(=O)C3CC3)cc2N1 (stereo partly shown) [CBK285432],84.987
18,C#CCNC(=O)C1CCN(c2nc3ccccc3n2CC)CC1 [CBK283923],87.932
19,O=C(NC1CC1)[C@@H]1C=CCN1S(=O)(=O)c1ccc(F)cc1 [CBK284294],66.1658
20,Cc1cccc(/N=C2\NC(=O)C(Cc3ccc(C)c(Cl)c3)S2)n1 (stereo not shown) [CBK265597],115.2
21,CCCCN1CC(C(=O)Nc2nccs2)CC1=O (stereo not shown) [CBK288224],100.354
22,CCNC(=O)Nc1cc2ccccc2c(-c2ccc(F)cc2OC)n1 [CBK085731],58.8919
23,CSc1nc(-n2nc(C)cc2C)c2c3c(sc2n1)COC(C)(C)C3 [CBK268906],97.2281
24,O=C(O)CSc1cccc([N+](=O)[O-])c1 [CBK110160],72.944
25,Cc1cc(Cl)ccc1OCCCc1nnc(S)n1C [CBK288396],59.9215
26,Cc1cccc(C2(O)CCN(C(=O)c3ccc4nc(C)[nH]c4c3)CC2)c1 [CBK283299],117.026
27,COc1cccc(CN2CCC3(C/C=C/COc4ccccc4C(=O)NCCNC3=O)CC2)c1F [CBK292025],112.574

row,SMILES,% of control remaining
1,CCN1CCc2nc(NC(=O)Cc3cn4ccsc4n3)sc2C1 [CBK304534],54.1125
2,Brc1cn2ccnc2c(NCc2ccccn2)n1 [CBK038024],111.714
3,Cc1nc(C)n(C(C)CNC(=O)Cn2ccc3ccc(F)cc32)n1 (stereo not shown) [CBK282612],114.898
4,Cc1ccccc1-c1ccccc1CC1(C(N)=O)CCN(C(=O)c2ccccc2)CC1 [CBK285721],112.844
5,O=C1CCCN1CCOc1nccnc1-c1cc2ccccc2s1 [CBK106780],105.343
6,O=[N+]([O-])c1ccccc1S(=O)(=O)N1CCN(C2CCCCCC2)CC1 [CBK264171G],128.476
7,Cc1cc2cc(C(=O)NCCCN3Cc4ccccc4C3)ccc2o1 [CBK282624],114.513
8,CCc1nc2ccc(C(=O)NCc3ccc4c(c3)OCO4)cn2c1N(CCN(C)C)CC1CC1 [CBK145472],138.269
9,CSc1nnc2n3ncnc3c3c4c(sc3n12)CCCC4C (stereo not shown) [CBK288542],82.9987
10,CS(=O)(=O)c1ccc(-n2nnnc2CN2CCC3(CCCCC3)C2)cc1 [CBK306183],40.6109
11,Cc1cc(C)nc(SCC(=O)Nc2ccc(C(=O)O)cc2)n1 [CBK263223],63.3883
12,O=C(NC(=S)Nc1ccc(-c2nc3ccccc3o2)c(O)c1)c1cncc(Br)c1 [CBK264931],98.3368
13,COc1cnn(-c2ccccc2)c(=O)c1N(C)C [CBK020317],72.6064
14,O=C(CSc1nnc(-c2cccnc2)o1)Nc1ccccc1 [CBK287742],71.4171
15,CS(=O)(=O)c1ccc(Cn2ccnc(OC3CCN(C(=O)c4ccc(C#N)cc4)CC3)c2=O)cc1 [CBK161804],91.8297
16,Cc1nn(C)cc1C(C)NC(=O)c1cn2cccc(C)c2n1 (stereo not shown) [CBK281731],128.734
17,COc1ccc(-c2ccnc(N[C@H]3CO[C@H]4[C@@H]3OC[C@@H]4NC(=O)c3ccccc3)n2)cc1 [CBK289526],109.359
18,CC(=O)Nc1ccc(S(N)(=O)=O)cc1Cl [CBK028784],88.9813
19,CSC(C)CCN1CCn2nc(CNc3cnccn3)cc2C1 (stereo not shown) [CBK307376],46.6872
20,CCc1cc(=O)[nH]c(-c2ccc(N(C)CC(C)O)nc2)n1 (stereo not shown) [CBK306484],55.7722
21,O=C(Nc1ccc(I)cc1C(=O)NCCN1CCOCC1)c1ccco1 [CBK266211],94.0657
22,CN1CCN(C(=S)Nc2ccc(S(N)(=O)=O)cc2)CC1 [CBK265223],97.5631
23,CCc1nnc(NS(=O)(=O)c2ccc(OC(F)(F)F)cc2)s1 [CBK026672],84.9442
24,Cc1c(Br)c(C(F)(F)F)nn1CC(=O)Nc1cc(C(F)(F)F)ccc1Cl [CBK087518],82.7824
25,Fc1ccc(-c2cncc(Nc3ccc4c(c3)OC(F)(F)C(F)(F)O4)n2)c(F)c1 [CBK065692],102.398
26,CNC(=O)CSc1nnc2[nH]c(=O)c(C)c(C)n12 [CBK287687],70.7922
27,Cc1cc(C)c(S(=O)(=O)NCCSCCC(=O)O)c(C)c1 [CBK013358],89.6625

row,SMILES,% of control remaining
1,COc1ccc(CCNC(=O)CN2CCCC2c2cnn(C)c2)cc1 (stereo not shown) [CBK305371],75.3394
2,COCc1nc2n(n1)CC(NC(C)C(C)OCc1ccccc1)CC2 (stereo not shown) [CBK304724],74.8908
3,Cc1ccc2c(C(=O)Nc3sc4c(c3C(N)=O)CCCCC4)cc(-c3ccccn3)nc2c1C [CBK267749],113.5
4,COC(=O)c1ccc(CC(C)C)nc1SC1=NCCCN1 [CBK005294C],95.8243
5,CCn1c(=O)n(CC(=O)N(C)C2CCCCC2)c2cccnc21 [CBK283786],85.4336
6,Cc1noc(C)c1C(=O)N[C@H]1CO[C@H]2[C@@H]1OC[C@H]2OCc1ccccc1 [CBK289458],91.6122
7,Cc1ccc(S(N)(=O)=O)cc1C(=O)NC(C)CCc1ccccc1 (stereo not shown) [CBK296671],62.3022
8,O=C(c1cccnc1)N1CCN(C(=O)c2ccco2)CC1 [CBK072684],87.8407
9,OC(CN1CCC(O)(c2ccccc2F)CC1)c1ccccc1 (stereo not shown) [CBK282490],80.7222
10,CC(C)(C)OC(=O)NC1CCN(C(=O)Nc2ccc(OCc3ccccc3)cc2)CC1 [CBK086602],71.14
11,Cc1cc(NC(=O)CN2CCN(Cc3ccccc3C#N)CC2)no1 [CBK305644],101.445
12,Cn1cccc1C(=O)N[C@H]1C[C@H]2C(=O)Nc3cc(Cl)ccc3C(=O)N2C1 [CBK289364],97.4164
13,Clc1ccc(-n2c(COc3cccc4cccnc34)nnc2SCc2ccccc2)cc1 [CBK268502],110.421
14,CCCc1n[nH]c(C(C)C)c1C(=O)OCC [CBK115724],91.525
15,N#Cc1cccc(Cn2cc(NC(=O)NCCc3cccs3)cn2)c1 [CBK043824],87.9469
16,CCOc1ccc(N(CCC#N)C(=O)Cn2nc(C(=O)O)c3ccccc3c2=O)cc1 [CBK297502],97.6141
17,CCN(CC)C(=O)CN1CCC(Oc2nccnc2OCc2cc(C)on2)CC1 [CBK082959T],106.239
18,CCOC(=O)N/N=C(/C)c1ccc(Br)s1 [CBK019480],110.894
19,O=C(O)CCC(=O)Nc1ccc(C(=O)O)cc1 [CBK260952],103.74
20,CN(CCc1cn[nH]c1)C(=O)CCc1ccc(Cl)cc1 [CBK283183],77.2447
21,O=C1S/C(=C\c2ccc(F)c(Br)c2)C(=O)N1c1cccc(Cl)c1 [CBK095450],91.3447
22,NC(=O)C1(Cc2cccc(-c3cccs3)c2)CCN(C(=O)Cc2cccc(F)c2)CC1 [CBK285783],104.265
23,CCOC(=O)c1cnc2c(C)c(Cl)ccc2c1NCCCN1CCOCC1 [CBK265296],84.8044
24,Cc1nc2c(C(=O)NCCC3OCCO3)cnn2c(C)c1Cc1cccnc1 [CBK162159],39.6142
25,COc1ncc(-c2nccnc2OCc2ccccc2)c(OC)n1 [CBK106748],92.0763
